Test results published in PubChem BioAssay AID686978 (National Center for Advancing Translational Sciences (NCATS), 2013).
The campaign covered roughly 420,000 compounds. About 64,000 (15%) were called active. Inconclusive means that the source gave no clear call. Such entries were picked first, then a sample of the others. Calls follow the shape of the dose curve; as a rule, active = well fitted inhibition curve with a large enough effect; inconclusive = small, poorly fitted or top-dose-only effect; inactive = flat fitted curve, though single readings scatter. Potencies of inconclusive entries are left out as doubtful fits.
% is scaled to controls: 0 for no effect and ±100 for the full control effect; potency is read from the fitted curve at half-maximal effect; tags tell the direction and shape of the fitted curve.

Assay: qHTS for Inhibitors of human tyrosyl-DNA phosphodiesterase 1 (TDP1): qHTS in cells in absence of CPT; also: nearly all actives have a fitted effect of over 55% in size
Details: DT40 Tdp1-/- hTDP1 cells, no CPT, ATP luminescence, 48 h; activity change, negative = growth inhibition: at 46.2 µM (top of the series) unless noted
In short: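 Growth kinetics read by CellTiter-Glo luminescence after ≥48 hr at 37 °C. Cells: DT40 Tdp1-/- stably carrying human TDP1, 400 per well, compound exposure in the absence of CPT (DMSO vehicle).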
For Cc1nnc(SCC(=O)Nc2nccs2)[nH]c1=O, the Potency was inconclusive [inhibitor, single point]. For Cc1cccc(N2CCN(C(=O)c3cnn(-c4ccccc4Cl)c3C3CCN(C(=O)OC(C)(C)C)CC3)CC2C)c1 (centres undefined), the Potency was active: 13 µM. In the case of COCCCNC(=O)c1cc(Sc2ccc(F)cc2)nc2ccccc12, the Potency is reported as inconclusive [inhibitor, single point]. For COc1cc(C(=O)NC(=S)N2CCCCCC2)cc(OC)c1OC, the Potency was inconclusive [inhibitor, single point]. In the case of CN1CCN(CC#Cc2ccccc2)CC1CCO (centres undefined), the “activity change, negative = growth inhibition” value is reported as inactive: 7.89%. In the case of CC(=O)Nc1ccc(/C=C/c2nc3ccccc3[nH]c2=O)cc1, the “activity change, negative = growth inhibition” value is reported as inactive: 2.09%. With COc1ccc(S(=O)(=O)n2nc(C)cc2C)c(C)c1C the “activity change, negative = growth inhibition” value was inactive: -25.4%. For COc1cccc2cc(/C(=N/O)c3ccc(Br)cc3)oc12, the Potency was inconclusive [inhibitor, partial curve]. For CCNC(=O)Oc1ccc(-c2csnn2)cc1, the Potency was inconclusive [inhibitor, single point]. For Cc1cccc(OCc2nc(CC(=O)Nc3ccc(C)cc3C)cs2)c1, the Potency was inconclusive [inhibitor, single point]. With CC(=O)c1ccc(N2CCN(C(C)C(=O)Nc3ccc4c(c3)OCCO4)CC2)cc1 (centres undefined) the Potency was inconclusive [inhibitor, single point]. With COc1ccc(S(=O)(=O)N2CCN(c3nc(-c4cccnc4)nc4ccccc34)CC2)cc1 the Potency was active: 8.2 µM. With Cc1ccc(S(=O)(=O)NCCC(c2ccccc2)c2ccco2)cc1 (centres undefined) the Potency was inconclusive [inhibitor, partial curve, poor fit]. In the case of N#C/C(=C\c1ccc(Sc2ccc(Cl)cc2)o1)c1nc2ccccc2[nH]1, the Potency is reported as active: 13 µM. With COc1ccc(CNCCCSc2nnnn2-c2ccccc2)cc1 the Potency was inconclusive [inhibitor, single point]. In the case of Cc1ccc(NC(=O)Cn2c(=S)[nH]c3ccccc32)cc1, the Potency is reported as inconclusive [inhibitor, single point]. With O=C(NC1CC2CCCC(C1)N2C(=S)Nc1ccc(Cl)cc1)C1CC1 (centres undefined) the Potency was inconclusive [inhibitor, single point]. In the case of COCCn1nnnc1C(c1ccccc1OC)N1CCN(c2ccccc2F)CC1 (centres undefined), the Potency is reported as inconclusive [inhibitor, single point]. In the case of CCc1ccc(C2c3c(oc4ccc(F)cc4c3=O)C(=O)N2CCc2ccc(OC)cc2)cc1 (centres undefined), the Potency is reported as inconclusive [inhibitor, partial curve]. For COc1ccccc1CNc1nc(Nc2ccccc2Cl)c2sccc2n1, the Potency was active: 7.31 µM. For O=C(/C=C/c1ccco1)c1cccnc1, the Potency was inconclusive [inhibitor, partial curve]. In the case of CC(=O)Nc1ccc(S(=O)(=O)N(C)CC(=O)OC2CCCCC2=O)cc1 (centres undefined), the “activity change, negative = growth inhibition” value is reported as inactive: -3.61%. With CCC(CO)Oc1cc(NC(=O)c2ccccc2)c2ncn(C(C)C)c2c1 (centres undefined) the Potency was inconclusive [inhibitor, single point]. For O=C(Nc1ccccc1C(F)(F)F)c1cc(-c2ccc3c(c2)OCCO3)on1, the Potency was inconclusive [inhibitor, partial curve]. For Cc1cnc(C)c(Nc2nc(C(N)Cc3ccc(F)cc3)cs2)n1 (centres undefined), the Potency was inconclusive [inhibitor, single point]. For CCN(CC)CCNC(=O)C(=O)NCC(c1cccnc1)N1CCN(c2ccc(F)cc2)CC1 (centres undefined), the Potency was inconclusive [inhibitor, single point]. With CN1C(CC(=O)Nc2ccc(Br)cc2)c2ccccc2CC1(C)C (centres undefined) the Potency was inconclusive [inhibitor, single point]. With CCOC(=O)c1c(N)n(CCOC(=O)c2cccs2)c2nc3ccccc3nc12 the Potency was inconclusive [inhibitor, single point]. In the case of CC(C)(C)OC(=O)C(Cl)(C(=O)OC(C)(C)C)c1ccc2nnnn2n1, the Potency is reported as inconclusive [inhibitor, single point]. In the case of O=C(CN1C(=O)/C(=C/c2ccccc2)SC1=S)NC1C=CS(=O)(=O)C1 (centres undefined), the Potency is reported as inconclusive [inhibitor, single point]. In the case of Cc1ccc(CNC(=O)Cn2c(=O)ccc3cc(S(=O)(=O)N4CCC(C)CC4)ccc32)cc1, the Potency is reported as inconclusive [inhibitor, single point]. In the case of O=C(N/N=C\c1ccc([N+](=O)[O-])s1)C1COc2ccccc2O1 (centres undefined), the Potency is reported as active: 5.8 µM. With CCOC(=O)c1c(NC(=O)c2cc(OCC)c(OCC)c(OCC)c2)sc2c1CCCCC2 the Potency was active: 23.1 µM. For COCCNC(=O)c1sc(=O)n(Cc2ccc(SC)cc2)c1C, the Potency was inconclusive [inhibitor, single point]. With CCCCSc1nnc(CCCCCNC(=O)OC(C)(C)C)o1 the activity change, negative = growth inhibition was inconclusive: -31.5% [inhibitor]. In the case of CN(/C=C/C(=C/C=[N+](C)c1ccccc1)OCCCS(=O)(=O)[O-])c1ccccc1, the “activity change, negative = growth inhibition” value is reported as inactive: -3.83%. For CCN(CC)CCN1CNC(=S)N(c2ccccc2OC)C1, the “activity change, negative = growth inhibition” value was inactive: -22.3%. With Cc1ccc(N(C(=O)CNC(=O)c2cccs2)C(C(=O)NC2CCCC2)c2ccncc2)cc1 (centres undefined) the “activity change, negative = growth inhibition” value was inactive: -16.5%. For CNC(=O)C1CC(=O)N(CCc2ccc(OC)c(OC)c2)C(=Nc2ccc(F)cc2)S1 (centres undefined), the Potency was inconclusive [inhibitor, single point]. With CN1CCN(c2nc(-c3cccc([N+](=O)[O-])c3)nc3ccccc23)CC1 the Potency was inconclusive [inhibitor, partial curve, poor fit]. For COc1cc2c(cc1OC)n(CC(=O)c1cccc(Cl)c1)c(=O)n1nc(CCn3nc(C)cc3C)nc21, the activity change, negative = growth inhibition was inconclusive: -30.8% [inhibitor]. For Cn1cnc(C(=O)NCc2ccc(CNC(=O)OC(C)(C)C)cc2)c1C(=O)NCc1ccc(CNC(=O)OC(C)(C)C)cc1, the Potency was inconclusive [inhibitor, single point]. For O=C(c1cc(COc2cccc3cnccc23)on1)N1CCCC(CCCO)C1 (centres undefined), the Potency was active: 0.651 µM. With N#Cc1ccc(CN2CCN(C(=O)c3ccc(S(=O)(=O)NCc4ccco4)cc3)CC2)cc1 the Potency was active: 2.59 µM. With COc1ccc(NC(=O)COc2ccc(C(=O)c3ccc(F)cc3)cc2)cc1S(N)(=O)=O the Potency was inconclusive [inhibitor, single point]. In the case of COC(=O)c1ccc(-c2ccc(Cl)cc2)nc1C, the Potency is reported as inconclusive [inhibitor, partial curve]. For CCOc1ncccc1C(=O)Nc1cc(S(=O)(=O)N2CCOCC2)ccc1OCC(F)(F)F, the activity change, negative = growth inhibition was inconclusive: -24.9% [inhibitor]. In the case of O=C1S/C(=C/c2ccccc2F)C(=O)N1CCN=C1NS(=O)(=O)c2ccccc21, the Potency is reported as inconclusive [inhibitor, single point]. In the case of COc1ccc(Cc2nnc(NC(=O)Nc3ccccc3F)s2)cc1OC, the Potency is reported as inconclusive [inhibitor, single point]. In the case of COc1cc(C)ccc1OCc1cc(C(=O)NC(c2ccccn2)C(F)(F)F)no1 (centres undefined), the Potency is reported as inconclusive [inhibitor, full curve, poor fit]. With CCOC(=O)c1cc(C#N)c(SCC(=O)O)[nH]c1=O the activity change, negative = growth inhibition was inconclusive: -30.5% [inhibitor]. With Cc1ccc(C)c(OCC(O)CN2CCC(C)CC2)c1C (centres undefined) the Potency was active: 20.6 µM. With O=C(Cn1c(=O)oc2cc(S(=O)(=O)N3CCCC3)ccc21)N1CCc2ccccc2C1 the Potency was inconclusive [inhibitor, single point]. With Cc1cccc(NC(=O)c2ncn3c2C(=O)N[C@@H](C)C3)c1 the Potency was inconclusive [inhibitor, single point]. With COc1ccc(-c2cn3nc(N4CCCC(C(=O)Nc5cccc(OC)c5)C4)sc3n2)cc1 (centres undefined) the Potency was active: 23.1 µM. With C[C@@H]1CN([C@@H](C)CO)S(=O)(=O)c2ccc(Br)cc2O[C@H]1CN(C)C(=O)c1ccccc1F the Potency was inconclusive [inhibitor, full curve, poor fit]. With CCc1ccccc1OCC(=O)Nc1ccc(F)c(S(=O)(=O)N2CCOCC2)c1 the Potency was inconclusive [inhibitor, single point]. For CCOCCCNC(=O)c1cc(Sc2cccc(Cl)c2)nc2ccccc12, the Potency was active: 14.6 µM. With COc1ccc(NC(=O)c2ccc3ncsc3c2)c2ccccc12 the “activity change, negative = growth inhibition” value was inactive: -28.6%. With Cc1ccccc1C(=O)Nc1sc2c(c1C(=O)N1CCCCC1)CCC(C)C2 (centres undefined) the Potency was inconclusive [inhibitor, single point]. For Cc1cc(NC(=O)c2cc(-c3ccncc3)nc3ccccc23)ccc1Br, the Potency was inconclusive [inhibitor, single point]. For COc1cccc(C(=O)N2c3ccc(C)cc3C(C)(c3ccccc3)CC2(C)C)c1 (centres undefined), the Potency was active: 23.1 µM. For COc1ccc(C2NC(=O)NC(C)=C2C(=O)Nc2ccccc2)cc1OC (centres undefined), the “activity change, negative = growth inhibition” value was inactive: 0.312%. In the case of Cc1cccc(NC(=O)c2ccccn2)c1C, the Potency is reported as inconclusive [inhibitor, partial curve]. For Cc1ccc(-c2nc(=S)c3c(n2Cc2ccco2)CCCC3)cc1, the Potency was inconclusive [inhibitor, single point]. For O=C(CN(Cc1cccs1)C(=O)CNS(=O)(=O)c1ccc(F)cc1)NCC1CCCO1 (centres undefined), the “activity change, negative = growth inhibition” value was inactive: -8.48%. For CCOC(=O)C1Nc2ccccc2C2C(O)C(O)CC12 (centres undefined), the Potency was inconclusive [inhibitor, single point]. In the case of C=CCOc1cccn2c(N(C=O)Cc3ccccc3)c(CC)nc12, the Potency is reported as active: 11.6 µM. With O=C(c1ccc(Cl)cc1)C(CN1CCCCC1)c1ccccc1 (centres undefined) the Potency was active: 2.06 µM.
